Test results reported in PMC6919601, “Identification of Plasmodium dipeptidyl aminopeptidase allosteric inhibitors by high throughput screening” (PLoS ONE, 2019).
The whole screen tested about 110,000 compounds, of which about 230 (0.21%) showed an effect of 50% or more. This is one part of the list.

Molecular target: DPAP1 (Plasmodium falciparum, UniProt Q8IIJ9)
Test: primary screen, percent inhibition; read by cleavage of a fluorogenic dipeptide substrate; higher = more effect of the substance
Parameters: species or system P. falciparum D10 trophozoite lysates; single well
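Also: 30 min substrate incubation versus DMSO and 10 µM JCP410 controls.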

Sequence of DPAP1 (Q8IIJ9 whole entry, looked up): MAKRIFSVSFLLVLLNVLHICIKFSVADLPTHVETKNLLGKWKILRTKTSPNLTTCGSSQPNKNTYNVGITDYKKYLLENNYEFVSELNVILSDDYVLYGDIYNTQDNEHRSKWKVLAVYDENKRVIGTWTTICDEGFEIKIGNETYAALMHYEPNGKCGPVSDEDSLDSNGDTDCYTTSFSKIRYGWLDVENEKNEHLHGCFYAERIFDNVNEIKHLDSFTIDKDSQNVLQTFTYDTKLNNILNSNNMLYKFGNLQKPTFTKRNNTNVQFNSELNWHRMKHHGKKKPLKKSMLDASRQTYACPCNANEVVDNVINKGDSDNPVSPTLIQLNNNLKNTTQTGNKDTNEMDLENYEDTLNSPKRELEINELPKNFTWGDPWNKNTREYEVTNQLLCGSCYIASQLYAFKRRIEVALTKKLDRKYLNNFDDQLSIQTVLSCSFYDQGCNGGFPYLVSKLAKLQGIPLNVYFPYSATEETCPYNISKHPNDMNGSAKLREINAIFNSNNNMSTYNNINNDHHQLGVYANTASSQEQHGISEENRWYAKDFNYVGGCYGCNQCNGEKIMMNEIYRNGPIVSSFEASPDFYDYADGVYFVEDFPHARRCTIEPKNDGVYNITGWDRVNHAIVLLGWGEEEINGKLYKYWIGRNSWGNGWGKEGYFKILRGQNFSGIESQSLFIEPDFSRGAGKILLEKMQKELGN

SMILES | % Inhibition @ 10 uM [%]
Clc1cccc(CN2CCN(C/C=C/c3ccccc3)CC2)c1 | 2.33
CCN1C(=O)/C(=C\c2ccc(C(=O)O)cc2)S/C1=N\c1ccccc1 | 0.793
C/C(=C\c1ccccc1)CN1CC(C)OC(C)C1 (centres unmarked) | -6
Cc1c(=O)n(OCc2ccccc2)c2ccccc2[n+]1[O-] | 4.11
CCCCN(C)C(=O)C1CCN(c2nn3cc(-c4ccc(C)cc4)nc3s2)CC1 | 2.97
COc1ccc(C2(CNC(=O)c3ccc(Br)cc3)CCOCC2)cc1 | 3.15
CN(Cc1ccccc1)C(=O)CN(c1ccc(F)cc1)S(=O)(=O)c1ccc2c(c1)OCCO2 | -9.2
COc1ccc(CNC(=O)CCC(=O)Nc2nc(-c3cc4ccccc4oc3=O)cs2)cc1 | 0.569
C=CCN1C(=O)C2(Nc3ccccc3C(=O)N2c2ccccc2)c2ccccc21 (centres unmarked) | -1.28
COc1ccc(NC(=O)c2cc(C#N)c3ccccn23)cc1 | -4.76
Cc1ccc(N2C(=O)NC(=O)/C(=C/Nc3cccc(O)c3)C2=O)cc1 | -2.46
COc1ccc(C2CC3=Nc4ccccc4N(C(=O)C4CC4)C(c4cccnc4)C3=C(O)C2)cc1OC (centres unmarked) | -2.16
CN(C=O)CP(=O)(O)CN1CCOCC1 | 2.09
CCc1ccc(S(=O)(=O)Nc2ccc3oc(=O)sc3c2)cc1 | -10.2
Cn1c(CNc2ccccc2)cc(=O)n(C)c1=O | 6.6
CC(=O)C1=C(O)C(=O)N(c2ccccn2)C1c1ccc(C)cc1 (centres unmarked) | 0.161
COc1ccc(-c2noc(CC(=O)NCCN3CCOCC3)n2)cc1 | -0.256
COc1ccc(C(=O)Nc2ccc(C(C)C)cc2)cc1 | -1.46
CC(C)c1ccc(C(=O)Nc2nnc(S(=O)(=O)N3CCOCC3)s2)cc1 | -1.72
CCc1cc2c(cc3c(=O)n(CC(=O)NCc4cccnc4)ncn32)s1 | 1.68
Cc1cccc(NS(=O)(=O)c2ccc3ccccc3c2)c1C | 5.29
COc1ccc2c(c1OC)C(=O)N1C(C(=O)O)Cc3c([nH]c4ccccc34)C21 (centres unmarked) | 1.29
O=C(Nc1nc(-c2ccc(-c3ccccc3)cc2)cs1)C1CC1 | 6.52
CCCNC(=O)c1c(NC(=O)c2ccc(C)cc2)sc2c1CCC(C)C2 (centres unmarked) | 0.343
O=C(Nc1nnc(S(=O)(=O)N2CCCCCC2)s1)c1cccc2ccccc12 | 4.86
CCOC(=O)C1=C(C)N=C2SCC(=O)N2C1c1ccc(Cl)cc1 (centres unmarked) | -1.15

SMILES | % Inhibition @ 10 uM [%]
CCOC(=O)c1oc2ccc(C=O)c(Cl)c2c1C | -4.02
CCN1CCN(c2nc3ccccc3n3cnnc23)CC1 | -0.692
Cn1c(CNC(c2ccccc2)c2ccccc2)nc2ccccc21 | 3.32
CSc1ccccc1Sc1cc(C(=O)NCC2CCCO2)c2ccccc2n1 (centres unmarked) | 10.6
O=C1NC(=O)C(=C/C=C/c2ccco2)C(=O)N1 | 1.29
CS(=O)(=O)N(CC(=O)Nc1cccc(Cl)c1)c1ccc(Cl)cc1 | 1.92
Cc1ccc(CNC(=O)c2cncc(NS(=O)(=O)c3ccc(Cl)cc3)c2)cc1 | 5.38
O=C(O)c1c(CNCc2cccc(Br)c2)c2ccccc2n1Cc1ccccc1F | -3.46
Cc1ccc(-c2c(NCc3ccccc3Cl)c(=O)c2=O)cc1 | -0.825
Cc1ccc(-n2nnnc2SCC(=O)NCc2cccc(C(=O)O)c2)c(C)c1 | -0.0735
CCOC(=O)c1nnc(-c2ccc(CN3CCc4ccccc4C3)cc2)o1 | -0.0709
CC12CN3CC(c4ccccc4)(CN(C1)C3C(O)C(O)C(O)CO)C2=O (centres unmarked) | 2.31
CSc1nc(-c2ccccc2)nn1S(=O)(=O)c1ccc(C)cc1 | 0.722
COc1ccc(CN2CCN(Cc3cc(OC)c(OC)cc3OC)CC2)cc1 | 3.86
COc1ccc(C=C2C(=O)OC3(CCCCC3)OC2=O)cc1O | -5.08
CCc1cccc(NC(=O)CCCC(=O)O)c1 | -0.68
COc1ccc(O)c(CN2C[C@@H]3C[C@H](C2)c2cccc(=O)n2C3)c1 | 3.15
COc1ccc(OC)c(C2C(C#N)=C(N)Oc3[nH]nc(-c4cccc5ccccc45)c32)c1 (centres unmarked) | -4.65
Cc1ccc(N2C(=O)NC(=O)/C(=C/Nc3cc(Cl)ccc3O)C2=O)cc1 | -6.35
Brc1ccc(CN2CCc3c([nH]c4ccccc34)C2)o1 | -0.473
Cc1ccc(-c2nc(-c3cc4ccccc4oc3=O)sc2C)cc1 | -5.5
CCN1N=C(c2ccccc2)C(c2ccco2)NC1=O (centres unmarked) | 12.2
COc1ccc(C(=O)c2c(/C=C(\C)N(C)C)oc3ccc(OC)cc23)cc1 | 1.34
O=C(c1ccccc1C(=O)N1CCN(Cc2ccccc2)CC1)N1CCN(Cc2ccccc2)CC1 | 5.42
O=C(NCCN1CCOCC1)c1ccc(CS(=O)(=O)Cc2ccccc2F)o1 | 3.93
CN1CCN(CC(O)c2ccc(C3CCCC3)cc2)CC1 (centres unmarked) | -5.1

SMILES | % Inhibition @ 10 uM [%]
COc1cc(C2C3=C(CC(C)(C)CC3=O)OC3=C2C(=O)CC(C)(C)C3)ccc1OCC(=O)O | -1.26
CSCc1nnc(NC(=O)c2ccc(S(=O)(=O)N3CCCCC3C)cc2)o1 (centres unmarked) | -8.38
COc1ccc(-n2ncc3c2ncn2nc(COc4c(C)cccc4C)nc32)cc1 | -4.64
Brc1ccc(CNCc2cccnc2)cc1 | 2.46
O=C(Nc1cccc2c(NC(=O)c3ccco3)cccc12)c1ccco1 | -0.759
COc1ccc2c(CNCCc3cccs3)c(C(=O)O)n(Cc3ccccc3F)c2c1 | 1.17
Cc1nnc(N2CCCC2)c2c1nnn2Cc1ccc(F)cc1 | -1.71
CCN(CC)C(=O)Cn1c(=O)cc(C(F)(F)F)c2c(C)nn(C)c21 | -5.33
Cc1nc2cc(Cc3ccc4[nH]c(C)nc4c3)ccc2[nH]1 | 5.5
COc1ccc(-n2c(C)ccc2C)cc1N | -8.85
O=C(CN1C(=O)S/C(=C\c2ccc3c(c2)OCO3)C1=O)c1ccccc1 | 6.63
COc1ccccc1CNC(=O)Cn1ncc2c3ccccc3n(Cc3cccc(Cl)c3)c2c1=O | -3.35
O=C(COc1ccc(NC2=NS(=O)(=O)c3ccccc32)cc1)N1CCOCC1 | 0.475
COc1ccc(CCNC(=O)CN(C2CCCCC2)S(C)(=O)=O)cc1 | 2.13
CC(=O)N1CCC(N2CCCN(C)CC2)CC1 | 0.273
CC(/C=c1\sc2nc3ccccc3n2c1=O)=C\c1ccco1 | 2.03
CC(=O)Nc1ccc(NC(=O)c2sc3ccccc3c2Cl)cc1 | -4.76
C=Cc1ccc(Cn2c(C(=O)O)c(CNCCc3ccc(C)cc3)c3ccccc32)cc1 | -5.05
CCN(CC)c1ccc(/C=C2/NC(=O)N(Cc3cccc(C)c3)C2=O)c(OC)c1 | -1.98
CC(C)CCNC(=O)C1CCN(c2ncnc3c2nc2n3CCCCC2)CC1 | 5.49
NC(=O)c1c(NC(=O)c2cc(F)c(F)cc2Cl)sc2c1CCCC2 | 4.02
COc1ccc2oc(C(O)c3c(C)oc4ccc(OC)cc34)cc2c1 (centres unmarked) | -10.4
CCOc1ccc(C2=CSC3=NCCN23)cc1 | 4
Cc1nc(-c2cccc(Cl)c2)cs1 | -5.98
O=C(O)C1CCN(C(=O)NC2CCCCC2)CC1 | -5.92
Cc1ccc2nc(N(CCCN(C)C)C(=O)C3CCCCC3)sc2c1 | -8.09

SMILES | % Inhibition @ 10 uM [%]
CC(=O)c1cccc(NC(=O)COc2cc(C)ccc2C)c1 | -2.8
COc1ccccc1NC(=O)C(C)N1C(=O)c2ccccc2C1=O (centres unmarked) | -2.59
O=C(O)C1CCCCC1C(=O)N1CCN(C(c2ccccc2)c2ccccc2)CC1 (centres unmarked) | 2.32
COc1ccc(CNC(=O)C2CCCN(S(=O)(=O)c3c(C)noc3/C=C/N(C)C)C2)cc1 (centres unmarked) | -4.69
CCc1c(-c2ccccc2)nc2ccccc2c1C(=O)N1CCOCC1 | -2.26
Cc1ccc(OC(C)C(=O)Nc2cccnc2Cl)cc1 (centres unmarked) | 0.331
O=C(O)CCCn1cc(NC(=O)c2cc3ccccc3oc2=O)cn1 | -1.24
Nc1nc(-c2ccc(F)cc2F)cs1 | -2.97
CC1(C)CC(n2c(SCc3ccccc3)nc3ccccc3c2=O)CCO1 (centres unmarked) | -12.7
COc1cc(C2CC(=O)NC3=C2C(=O)CCC3)ccc1OCc1ccccc1 (centres unmarked) | 11.4
CCC1CCc2c(n(C)c3ccccc3c2=O)O1 (centres unmarked) | -6.48
CCOC(=O)c1[nH]c2ccccc2c1NC(=O)/C=C/c1ccc2c(c1)OCO2 | 5.4
Cc1nn(-c2ccccc2)c2c1C(c1cccnc1)C(C#N)=C(N)O2 (centres unmarked) | 0.878
CCc1nc2ccc(C(=O)NCCc3c[nH]cn3)cc2nc1CC | 1.63
CCOc1ccc(NC(=O)c2cnn(-c3ccccc3)c2NC(=O)c2ccccc2F)cc1 | -0.28
COc1ccc(C2(C)SC(NC(C)=O)=NN2C(C)=O)cc1 (centres unmarked) | 0.431
O=C(c1ccc2c(c1)OCO2)N1CCCN(C(=O)c2ccc3c(c2)OCO3)CC1 | 2.17
Cc1ccc(S(=O)(=O)Nc2ccc(-c3cn4ccsc4n3)cc2)cc1 | 1.37
COc1ccc2[nH]cc(CCNCCNCCS)c2c1 | 0.00178
O=C(CSc1nc2ccsc2c(=O)n1CCc1ccc(Cl)cc1)Nc1nccs1 | 4.02
COCCNC(=O)C1=CC(c2ccco2)=NS(=O)(=O)N1C | -4.68
O=C(N[C@@H](Cc1ccccc1)C(=O)O)c1cccnc1 | -2.83
Cc1cc(N2CCN(c3cc(C)nc(C)c3)CC2)cc(C)n1 | -8.28
